Measurements taken from patent publication US20200231654A1 (Daiichi Sankyo, published 2020).

Legend:
hMMP-9(cat)_E402Q_His6 = target: T1, hMMP-9(cat)_E402Q_His6 (human, UniProt P14780 107-449); test: size exclusion chromatography of the mixture, peak shift
T1 construct: also called human MMP-9 enzyme active domain E402Q mutant; human MMP-9 E402Q mutant; not shown: His tag (His6 by the construct's name)
Protocol: (§1) After the reaction, 10 μl of the reaction solution was analyzed by size exclusion chromatography. The chromatographic conditions were as follows.

active hMMP-9(cat)_His6 = target: T2, active hMMP-9(cat)_His6 (human, UniProt P14780 107-449); test: as above
T2 construct: also called active human MMP-9 enzyme active domain; active human MMP-9; not shown: His tag (His6 by the construct's name)
Protocol: as §1

Sequence of hMMP-9(cat)_E402Q_His6 (P14780 107-449 E402Q): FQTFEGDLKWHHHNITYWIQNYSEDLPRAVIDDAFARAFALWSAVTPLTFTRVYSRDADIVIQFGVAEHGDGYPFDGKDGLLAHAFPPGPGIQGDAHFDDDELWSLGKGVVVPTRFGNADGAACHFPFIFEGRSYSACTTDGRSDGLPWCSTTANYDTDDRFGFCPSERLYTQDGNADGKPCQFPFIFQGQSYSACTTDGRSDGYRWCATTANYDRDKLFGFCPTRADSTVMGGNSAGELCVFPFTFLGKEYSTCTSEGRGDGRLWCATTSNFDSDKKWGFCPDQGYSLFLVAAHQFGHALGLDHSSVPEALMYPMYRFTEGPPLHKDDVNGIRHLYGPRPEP
Sequence of active hMMP-9(cat)_His6 (P14780 107-449): as the sequence (P14780 107-449 E402Q) above, with Q296E counted along it

B1: hTIMP-1 (other, human, UniProt P01033 24-207, looked up)
chain: CTCVPPHPQTAFCNSDLVIRAKFVGTPEVNQTTLYQRYEIKMTKMYKGFQALGDAADIRFVYTPAMESVCGYFHRSHNRSEEFLIAGKLQDGLLHITTCSFVAPWNSLSLAQRRGFTKTYTVGCEECTVFPCLSIPCKLQSGTHCLWTDQLLQGSEKGFQSRHLACLPREPGLCTWQSLRSQIA
- binding result (hMMP-9(cat)_E402Q_His6): binds
- binding result (active hMMP-9(cat)_His6): binds
